For 28 compounds, cell count results are on record in the supplement of paper PMC4604168 (melanoma cell lines).

Each structure is given as a SMILES string. The list shows a part of the results. Repeats are few or missing, and single values can be far off.
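Also: cell number obtained by counting DAPI-stained nuclei in high-throughput microscope images with image analysis software, screen run in 1,536-well plates.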

For the first assay, the system named is UACC257. The experiment in a line: cell count relative to DMSO control; melanoma cells; higher = more viable cells. To be noted: library dose: low library concentration; 72 h.
In turn, `O=C(O)[C@@H]1[O][Sb](=[O])([O][Sb]2(=[O])[O][C@H]([C@H](O)CO)[C@H](O)[C@H](C(=O)O)[O]2)[O][C@H]([C@H](O)CO)[C@@H]1O` (stereo not given in full) [stibogluconate] + C[C@@H]1CCN(C(=O)CC#N)C[C@@H]1N(C)c1ncnc2[nH]ccc12 [CP690550] (first compound 2 µM, partner dose 1 µM) registered a cell count of 99.9%.

Compound `O=C(Nc1cc(C(F)(F)F)cc(C(F)(F)F)c1)c1cc(Cl)ccc1O` + CN(NC(=O)CC(=O)NN(C)C(=S)c1ccccc1)C(=S)c1ccccc1 [STA4783] (first compound 0.016 µM, partner dose 0.006 µM) registered a cell count of 88.4%.

Compound `O=C(O)c1ccc2c(c1)nc(Nc1cccc(Cl)c1)c1ccncc12` + NC(=O)Nc1cc(-c2cccc(F)c2)sc1C(=O)N[C@H]1CCCNC1 [AZD7762] (first compound 0.4 µM, partner dose 0.02 µM) registered a cell count of 109%.

Compound `O=C(O)[C@@H]1[O][Sb](=[O])([O][Sb]2(=[O])[O][C@H]([C@H](O)CO)[C@H](O)[C@H](C(=O)O)[O]2)[O][C@H]([C@H](O)CO)[C@@H]1O` (stereo not given in full) [stibogluconate] + CC(C)(C)c1cnc(CSc2cnc(NC(=O)C3CCNCC3)s2)o1 [SNS-032] (first compound 2 µM, partner dose 0.01 µM) showed a cell count of 107%.

In turn, `O=C(O)c1ccc2c(c1)nc(Nc1cccc(Cl)c1)c1ccncc12` + CO[C@@H]1[C@H](N(C)C(=O)c2ccccc2)C[C@H]2O[C@]1(C)n1c3ccccc3c3c4c(c5c6ccccc6n2c5c31)C(=O)NC4 [Midostaurin] (first compound 0.4 µM, partner dose 0.08 µM) gave a cell count of 88%.

The compound `Cn1nnc2c(C(N)=O)ncn2c1=O` [temozolomide] + CN(NC(=O)CC(=O)NN(C)C(=S)c1ccccc1)C(=S)c1ccccc1 [STA4783] (first compound 2 µM, partner dose 0.006 µM) gave a cell count of 88.1%.

The test system of a further assay is UACC62. The assay is described as above. To be noted: library dose: low library concentration; 72 h.
`O=C(O)[C@@H]1[O][Sb](=[O])([O][Sb]2(=[O])[O][C@H]([C@H](O)CO)[C@H](O)[C@H](C(=O)O)[O]2)[O][C@H]([C@H](O)CO)[C@@H]1O` (stereo not given in full) [stibogluconate] + CN(C)S(=O)(=O)c1ccc2c(c1)/C(=C/c1cc3c([nH]1)CCCC3)C(=O)N2 [SU6656] (first compound 2 µM, partner dose 0.4 µM) showed a cell count of 107%.

Compound `O=C(O)c1ccc2c(c1)nc(Nc1cccc(Cl)c1)c1ccncc12` + C[C@]1(c2nc3c(C(N)=O)cccc3[nH]2)CCCN1 [Veliparib] (first compound 0.4 µM, partner dose 1.4 µM) yielded a cell count of 86.2%.

`O=C(Nc1cc(C(F)(F)F)cc(C(F)(F)F)c1)c1cc(Cl)ccc1O` + NC(=O)c1ccc(N(C(N)=O)c2c(F)cccc2F)nc1-c1ccc(F)cc1F [VX702] (first compound 0.016 µM, partner dose 0.4 µM): the cell count came out at 106%.

In turn, `O=C(Nc1cc(C(F)(F)F)cc(C(F)(F)F)c1)c1cc(Cl)ccc1O` + Cn1cnc2c(F)c(Nc3ccc(Br)cc3Cl)c(C(=O)NOCCO)cc21 [selumetinib] (first compound 0.016 µM, partner dose 0.015 µM) registered a cell count of 82.9%.

`O=C(O)c1ccc2c(c1)nc(Nc1cccc(Cl)c1)c1ccncc12` + O=C1NC(=O)/C(=C/c2ccc(-c3ccc(F)cc3O)o2)S1 [AS252424] (first compound 0.4 µM, partner dose 1 µM): the cell count was found to be 92.3%.

`O=C(Nc1cc(C(F)(F)F)cc(C(F)(F)F)c1)c1cc(Cl)ccc1O` + O=C(O)[C@@H]1[O][Sb](=[O])([O][Sb]2(=[O])[O][C@H]([C@H](O)CO)[C@H](O)[C@H](C(=O)O)[O]2)[O][C@H]([C@H](O)CO)[C@@H]1O [stibogluconate] (first compound 0.016 µM, partner dose 2 µM): the cell count came to 115%.

`O=C(O)c1ccc2c(c1)nc(Nc1cccc(Cl)c1)c1ccncc12` + OCc1c[nH]c2ccccc12 [Indole-3-carbinol] (first compound 0.4 µM, partner dose 0.8 µM): the cell count was determined as 80.9%.

In turn, `O=C(Nc1cc(C(F)(F)F)cc(C(F)(F)F)c1)c1cc(Cl)ccc1O` + COc1cc2ncnc(Nc3ccc(Oc4ccccc4)cc3)c2cc1OC [SrcI1] (first compound 0.016 µM, partner dose 2 µM) showed a cell count of 103%.

The compound `O=C(O)[C@@H]1[O][Sb](=[O])([O][Sb]2(=[O])[O][C@H]([C@H](O)CO)[C@H](O)[C@H](C(=O)O)[O]2)[O][C@H]([C@H](O)CO)[C@@H]1O` (stereo not given in full) [stibogluconate] + COc1cc(Nc2ncc(F)c(Nc3ccc4c(n3)NC(=O)C(C)(C)O4)n2)cc(OC)c1OC [Tamatinib] (first compound 2 µM, partner dose 0.4 µM) had a cell count of 86.3%.

As for `O=C(Nc1cc(C(F)(F)F)cc(C(F)(F)F)c1)c1cc(Cl)ccc1O` + CC1(C)CCC(c2ccc(Cl)cc2)=C(CN2CCN(c3ccc(C(=O)NS(=O)(=O)c4ccc(N[C@H](CCN5CCOCC5)CSc5ccccc5)c(S(=O)(=O)C(F)(F)F)c4)cc3)CC2)C1 [ABT263] (first compound 0.016 µM, partner dose 0.4 µM), the cell count turned out to be 96.2%.

Compound `O=C(Nc1cc(C(F)(F)F)cc(C(F)(F)F)c1)c1cc(Cl)ccc1O` + CC(C)CCN1c2nc(Nc3cc(F)c(O)c(F)c3)ncc2N(C)C(=O)C1C [BID1870] (first compound 0.016 µM, partner dose 0.2 µM) gave a cell count of 91.3%.

The compound `O=C(Nc1cc(C(F)(F)F)cc(C(F)(F)F)c1)c1cc(Cl)ccc1O` + O=C(Nc1cccc(Cl)c1)Nc1ncc(CCNc2ncnc3ccsc23)s1 [SNS314] (first compound 0.016 µM, partner dose 0.0008 µM) returned a cell count of 86.1%.

The compound `O=C(O)[C@@H]1[O][Sb](=[O])([O][Sb]2(=[O])[O][C@H]([C@H](O)CO)[C@H](O)[C@H](C(=O)O)[O]2)[O][C@H]([C@H](O)CO)[C@@H]1O` (stereo not given in full) [stibogluconate] + CCc1ccc(CCOc2ccc(CC3SC(=O)NC3=O)cc2)nc1 [pioglitazone] (first compound 2 µM, partner dose 2 µM) showed a cell count of 112%.

The compound `O=C(O)[C@@H]1[O][Sb](=[O])([O][Sb]2(=[O])[O][C@H]([C@H](O)CO)[C@H](O)[C@H](C(=O)O)[O]2)[O][C@H]([C@H](O)CO)[C@@H]1O` (stereo not given in full) [stibogluconate] + O=C(O)C(=O)Nc1sc2c(c1C(=O)O)CCNC2 [TCS401] (first compound 2 µM, partner dose 1.66667 µM) showed a cell count of 94.9%.

Compound `O=C(Nc1cc(C(F)(F)F)cc(C(F)(F)F)c1)c1cc(Cl)ccc1O` + CS(=O)(=O)c1ccc(C(=O)Nc2ccc(Cl)c(-c3ccccn3)c2)c(Cl)c1 [vismodegib] (first compound 0.016 µM, partner dose 1 µM) displayed a cell count of 100%.

The compound `O=C(Nc1cc(C(F)(F)F)cc(C(F)(F)F)c1)c1cc(Cl)ccc1O` + COc1ccc(Cl)c(Nc2nc3ccccc3nc2NS(=O)(=O)c2cccc(NC(=O)C(C)(C)N)c2)c1 [XL147] (first compound 0.016 µM, partner dose 0.8 µM) gave a cell count of 92.3%.

With `O=C(O)c1ccc2c(c1)nc(Nc1cccc(Cl)c1)c1ccncc12` + Cn1nnc2c(C(N)=O)ncn2c1=O [temozolomide] (first compound 0.4 µM, partner dose 2 µM), the cell count was found to be 77.6%.

Consider `O=C(O)c1ccc2c(c1)nc(Nc1cccc(Cl)c1)c1ccncc12` + CC1(C)NC(=O)N(c2ccc([N+](=O)[O-])c(C(F)(F)F)c2)C1=O [nilutamide] (first compound 0.4 µM, partner dose 1 µM), for which the cell count came to 92.7%.

In turn, `O=C(O)c1ccc2c(c1)nc(Nc1cccc(Cl)c1)c1ccncc12` + Oc1nc(-c2ccc(C(F)(F)F)cc2)nc2c1CSCC2 [XAV939] (first compound 0.4 µM, partner dose 2 µM) came in with a cell count of 94.3%.

Regarding `O=C(O)[C@@H]1[O][Sb](=[O])([O][Sb]2(=[O])[O][C@H]([C@H](O)CO)[C@H](O)[C@H](C(=O)O)[O]2)[O][C@H]([C@H](O)CO)[C@@H]1O` (stereo not given in full) [stibogluconate] + C#Cc1cccc(Nc2ncnc3cc(OCCOC)c(OCCOC)cc23)c1 [erlotinib] (first compound 2 µM, partner dose 0.8 µM), the cell count amounted to 91.3%.

Take `O=C(O)[C@@H]1[O][Sb](=[O])([O][Sb]2(=[O])[O][C@H]([C@H](O)CO)[C@H](O)[C@H](C(=O)O)[O]2)[O][C@H]([C@H](O)CO)[C@@H]1O` (stereo not given in full) [stibogluconate] + C[C@@H]1CCN(C(=O)CC#N)C[C@@H]1N(C)c1ncnc2[nH]ccc12 [CP690550] (first compound 2 µM, partner dose 1 µM): the cell count was 103%.

As to `O=C(O)[C@@H]1[O][Sb](=[O])([O][Sb]2(=[O])[O][C@H]([C@H](O)CO)[C@H](O)[C@H](C(=O)O)[O]2)[O][C@H]([C@H](O)CO)[C@@H]1O` (stereo not given in full) [stibogluconate] + OCc1c[nH]c2ccccc12 [Indole-3-carbinol] (first compound 2 µM, partner dose 0.8 µM), the cell count is 93.9%.

`O=C(Nc1cc(C(F)(F)F)cc(C(F)(F)F)c1)c1cc(Cl)ccc1O` + Clc1ccc(Nc2nnc(Cc3ccncc3)c3ccccc23)cc1 [vatalanib] (first compound 0.016 µM, partner dose 2 µM) gave a cell count of 94.5%.

The compound `O=C(Nc1cc(C(F)(F)F)cc(C(F)(F)F)c1)c1cc(Cl)ccc1O` + CN(NC(=O)CC(=O)NN(C)C(=S)c1ccccc1)C(=S)c1ccccc1 [STA4783] (first compound 0.016 µM, partner dose 0.006 µM) had a cell count of 92.7%.
